Hit rate of the full screen: of about 310,000 compounds, about 2,200 (0.71%) showed an effect of 50% or more. The effect is printed as a negative number. This is one part of the list.

Experimental findings from PMC4336329 (PLoS ONE, 2015) are described below.

human ether-à-go-go-related gene (hERG) potassium channel, sequence (Q12809 whole entry, looked up): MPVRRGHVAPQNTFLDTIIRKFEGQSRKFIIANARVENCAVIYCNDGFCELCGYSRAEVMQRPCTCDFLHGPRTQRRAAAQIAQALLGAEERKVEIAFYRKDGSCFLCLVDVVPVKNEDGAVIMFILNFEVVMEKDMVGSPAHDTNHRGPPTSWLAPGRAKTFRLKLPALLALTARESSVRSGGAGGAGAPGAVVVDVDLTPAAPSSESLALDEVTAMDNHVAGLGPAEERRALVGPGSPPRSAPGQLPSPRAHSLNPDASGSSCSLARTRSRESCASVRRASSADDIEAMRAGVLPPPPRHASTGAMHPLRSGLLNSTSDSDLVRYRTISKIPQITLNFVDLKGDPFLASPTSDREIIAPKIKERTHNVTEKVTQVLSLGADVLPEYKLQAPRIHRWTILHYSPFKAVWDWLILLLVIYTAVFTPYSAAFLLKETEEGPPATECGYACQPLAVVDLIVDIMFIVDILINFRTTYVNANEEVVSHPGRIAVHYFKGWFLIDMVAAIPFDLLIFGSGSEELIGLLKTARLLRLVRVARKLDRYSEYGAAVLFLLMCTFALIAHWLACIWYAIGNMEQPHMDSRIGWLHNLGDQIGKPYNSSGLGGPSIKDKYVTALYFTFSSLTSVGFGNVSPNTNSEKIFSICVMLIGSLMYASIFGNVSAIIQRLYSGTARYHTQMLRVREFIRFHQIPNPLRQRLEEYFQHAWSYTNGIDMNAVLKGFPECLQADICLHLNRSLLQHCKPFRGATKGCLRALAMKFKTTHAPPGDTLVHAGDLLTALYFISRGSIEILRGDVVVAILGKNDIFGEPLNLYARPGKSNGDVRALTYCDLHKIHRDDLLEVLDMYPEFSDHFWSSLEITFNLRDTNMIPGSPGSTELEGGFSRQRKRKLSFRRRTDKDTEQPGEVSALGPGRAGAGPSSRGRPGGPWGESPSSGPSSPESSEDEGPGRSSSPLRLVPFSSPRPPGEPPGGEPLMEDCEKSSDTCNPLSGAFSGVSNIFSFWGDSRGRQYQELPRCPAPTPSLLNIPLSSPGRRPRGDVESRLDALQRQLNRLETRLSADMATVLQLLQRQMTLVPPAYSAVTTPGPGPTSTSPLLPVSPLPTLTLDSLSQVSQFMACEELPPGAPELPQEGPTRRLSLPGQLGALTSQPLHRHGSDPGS

The experiment concerns the target human ether-à-go-go-related gene (hERG) potassium channel (human, UniProt Q12809). Nature of the experiment: primary screen, population patch clamp on CHO cells stably expressing hERG.
Regarding `O=C(c1ccccc1F)N1CCN=C1SCc1cccnc1`, the “hERG current change (%, negative = inhibition) at 1uM” value was 1.86%. In the case of `COC(=O)Cc1cnc(NC(=O)CSc2nc(C(C)C)cc(=O)[nH]2)s1`, the “hERG current change (%, negative = inhibition) at 1uM” value is listed as 23%. Next, `Cc1ccc2c(C(=O)CN3CCC(C(N)=O)CC3)c(C)[nH]c2c1`: 10.3%; `O=C(CN1CCN(C(=O)c2ccco2)CC1)Nc1ccc2c(c1)OCO2`: -8.79%. The value for `Cc1cc(OC(C)C(=O)NC2CCN(Cc3ccccc3)CC2)c2c(C)cc(=O)oc2c1` (stereo not drawn) was 4.5%; that for `O=C(CSc1cn[nH]n1)Nc1ccc(Cl)cc1Cl` was 12.5%.

With `CCOc1ccc(-c2nnc3ccc(SCc4ccc(C(=O)OC)o4)nn23)cc1`, the “hERG current change (%, negative = inhibition) at 1uM” value was found to be 7.54%. Next, `C/C(Cc1ccccc1)=N\NC(=O)CNC(=O)/C=C\c1ccccc1`: 12.4%. Next, `COc1cc(/C=C/C(=O)O)cc(S(=O)(=O)NCCCC(=O)O)c1OC`: 17%. The value for `Cn1c2ccc(Cl)cc2c2nc3ccccc3nc21` was 21%; that for `COc1ccc([C@@H]2CC=C(C(=O)O)[C@H](c3ccc(Cl)cc3)N2S(=O)(=O)c2ccc(Cl)cc2)cc1` was 7.17%; that for `Cc1cc(C)nc(N2CCN(c3ncnc4c3cnn4Cc3ccc(Cl)cc3Cl)CC2)n1` was 12.7%. In the case of `COc1cccc(CNS(=O)(=O)c2c(C)nc3sccn3c2=O)c1`, the “hERG current change (%, negative = inhibition) at 1uM” value is given as 5.45%. `Cc1cc(NC(=O)c2ccccc2Cl)ccc1NC(=O)c1ccccc1Cl`: the “hERG current change (%, negative = inhibition) at 1uM” value is given as 13%. Next, `Cc1ccc(NC(=O)CN(C)C(=O)CSc2nc3ccccc3c(=O)n2Cc2ccco2)cc1`: -41.8%. The value for `O=C(Nc1ccc(NC(=O)c2ccccc2)nc1)c1ccncc1` was -1.7%; that for `CC(=O)NC(C)c1cc(F)c2cccnc2c1O` (stereo not drawn) was -4.05%; that for `CCOC(=O)C1=C(O)C(=O)N(c2ccccc2)C1c1cccc([N+](=O)[O-])c1` (stereo not drawn) was -2.68%.

Regarding `Cc1c(Cl)cnc(NC(=O)COC(=O)C2CC3CCCC(C2)C3=O)c1Cl` (stereo not drawn), the “hERG current change (%, negative = inhibition) at 1uM” value came to 14.9%.

As to `Cc1ccc(NC(=O)c2cc(S(=O)(=O)N3CCOCC3)cs2)cc1`, the “hERG current change (%, negative = inhibition) at 1uM” value worked out at 0.623%. Turning to `CCN(CC)C(=O)C(=O)c1cccn1-c1ccccc1C#N`, the “hERG current change (%, negative = inhibition) at 1uM” value was 3.51%. The value for `CNC(=O)c1csc(-c2cccs2)n1` was 12.6%; that for `N#CCCn1c(O)c(N=NC(=O)CNC(=O)c2cccs2)c2ccccc21` was 0.435%; that for `N#Cc1cc([N+](=O)[O-])ccc1N1CCCC1` was -12.3%.
